# Some of the results follow.
# B1: PhoQ; a variant is named by its letters at X, in order, P23837 (parent)
# chain: MKKLLRLFFPLSLRVRFLLATAAVVLVLSLAYGMVALIGYSVSFDKTTFRLLRGESNLFYTLAKWENNKLHVELPENIDKQSPTMTLIYDENGQLLWAQRDVPWLMKMIQPDWLKSNGFHEIEADVNDTSLLLSGDHSIQQQLQEVREDDDDAEMTHSVAVNVYPATSRMPKLTIVVVDTIPVELKSSYMVWSWFIYVLSANLLLVIPLLWVAAWWSLRPIEALAKEVRELEEHNRELLNPATTRELTSLVRNLNRLLKSERERYDKYRTTLTDLTHSLKTPLXXLQXXLRSLRSEKMSVSDAEPVMLEQISRISQQIGYYLHRASMRGGTLLSRELHPVAPLLDNLTSALNKVYQRKGVNISLDISPEISFVGEQNDFVEVMGNVLDNACKYCLEFVEISARQTDEHLYIVVEDDGPGIPLSKREVIFDRGQRVDTLRPGQGVGLAVAREITEQYEGKIVAGESMLGGARMEVIFGRQHSAPKDE
# Variants of: B1
# Assay: enrichment ratio after two sorts for PhoP signalling (ratio (wild type AVST 3.29)); higher = more functional
# Settings: with PhoP (E. coli)
row,Variant,enrichment ratio
1,TLSW,2.4
2,VILH,≤ 0.25
3,GRCW,≤ 0.25
4,VPIC,≤ 0.25
5,MPWM,≤ 0.25
6,HNVE,≤ 0.25
7,FCMN,2.27
8,ENKA,≤ 0.25
9,HADI,≤ 0.25
10,TWSG,≤ 0.25
11,WMCW,≤ 0.25
12,NWTP,≤ 0.25
13,GPVF,≤ 0.25
14,ILWA,≤ 0.25
15,FYNM,≤ 0.25
16,LHST,≤ 0.25
17,YQIQ,≤ 0.25
18,AAYP,≤ 0.25
19,TIVK,≤ 0.25
20,RKGG,≤ 0.25
21,NYIS,≤ 0.25
22,WGHL,≤ 0.25
23,HDKW,≤ 0.25
24,VLQC,≤ 0.25
25,AQVE,34.1
26,YMNL,≤ 0.25

row,Variant,enrichment ratio
1,QGEL,≤ 0.25
2,SEPH,≤ 0.25
3,WIRF,≤ 0.25
4,PCSV,≤ 0.25
5,MNCS,≤ 0.25
6,GFCM,1.87
7,SHDT,≤ 0.25
8,PPET,≤ 0.25
9,HEGL,≤ 0.25
10,RICL,≤ 0.25
11,YASS,≤ 0.25
12,ECHA,≤ 0.25
13,GMYR,≤ 0.25
14,VCTQ,≤ 0.25
15,LVKD,≤ 0.25
16,QIMP,≤ 0.25
17,WNSM,≤ 0.25
18,LDEI,≤ 0.25
19,YCYS,≤ 0.25
20,IFMF,≤ 0.25
21,AMAR,7.65
22,IQQM,≤ 0.25
23,TEGA,≤ 0.25
24,LNGI,≤ 0.25
25,WVMA,≤ 0.25
26,KQTY,≤ 0.25

row,Variant,enrichment ratio
1,ERCN,≤ 0.25
2,YAFI,≤ 0.25
3,GEHY,≤ 0.25
4,KFLA,≤ 0.25
5,MQFC,0.266
6,LARK,≤ 0.25
7,MHCD,≤ 0.25
8,PCGW,≤ 0.25
9,HYLH,≤ 0.25
10,SLET,≤ 0.25
11,LPVI,≤ 0.25
12,GIAW,21.6
13,SRCT,≤ 0.25
14,GIAD,≤ 0.25
15,VLIN,≤ 0.25
16,RFWH,≤ 0.25
17,ATNI,≤ 0.25
18,HFSC,≤ 0.25
19,TYDV,≤ 0.25
20,AQLF,15.8
21,PQCL,0.411
22,WICI,≤ 0.25
23,KSHA,≤ 0.25
24,GHDY,≤ 0.25
25,RTHH,1.43
26,EVRY,≤ 0.25

row,Variant,enrichment ratio
1,HFWY,≤ 0.25
2,GDCT,0.951
3,RGQV,≤ 0.25
4,IDYF,≤ 0.25
5,AQNH,≤ 0.25
6,DKKG,≤ 0.25
7,NNCW,≤ 0.25
8,LNEH,≤ 0.25
9,DHNR,≤ 0.25
10,QSNL,0.925
11,RKLL,≤ 0.25
12,LFPC,≤ 0.25
13,ANGQ,≤ 0.25
14,LYDM,≤ 0.25
15,AEGR,≤ 0.25
16,GTVI,1.54
17,WDCF,≤ 0.25
18,MPYV,≤ 0.25
19,FRGT,≤ 0.25
20,EATY,≤ 0.25
21,TCKF,≤ 0.25
22,CFPI,≤ 0.25
23,AWDR,≤ 0.25
24,FNKY,≤ 0.25
25,HPRW,≤ 0.25
26,NMWC,≤ 0.25

row,Variant,enrichment ratio
1,DCYA,≤ 0.25
2,AVGW,12.2
3,ANLL,13.4
4,QHSW,≤ 0.25
5,IMCI,≤ 0.25
6,AKYG,≤ 0.25
7,KAHS,≤ 0.25
8,LCQR,≤ 0.25
9,YGLW,≤ 0.25
10,VNAR,≤ 0.25
11,ETMH,≤ 0.25
12,SEYD,≤ 0.25
13,HYTK,≤ 0.25
14,RQNV,≤ 0.25
15,INKH,≤ 0.25
16,HKVP,≤ 0.25
17,FWKE,≤ 0.25
18,KMGR,≤ 0.25
19,WYDW,≤ 0.25
20,HFRS,≤ 0.25
21,WNER,≤ 0.25
22,QTAG,≤ 0.25
23,KLID,≤ 0.25
24,RSAC,≤ 0.25
25,ALNL,1.07
26,NCKH,≤ 0.25

row,Variant,enrichment ratio
1,YKCA,≤ 0.25
2,NRWC,≤ 0.25
3,IIDH,≤ 0.25
4,VNCQ,≤ 0.25
5,KCFE,≤ 0.25
6,EPFW,≤ 0.25
7,SDDS,≤ 0.25
8,HSGQ,≤ 0.25
9,NSLP,≤ 0.25
10,HELA,≤ 0.25
11,DTRQ,≤ 0.25
12,DNYN,≤ 0.25
13,FPPI,≤ 0.25
14,WSYS,≤ 0.25
15,HKGK,≤ 0.25
16,IYNS,≤ 0.25
17,MNQP,≤ 0.25
18,STTL,16.6
19,NWKG,≤ 0.25
20,DRQR,≤ 0.25
21,LSPE,≤ 0.25
22,MNLC,11.7
23,KYDF,≤ 0.25
